According to patent publication US20230399408A1 (AB THERAPEUTICS, published 2023):

Biological target: T1, c-MET-His tag protein (human, UniProt P08581 25-932)
T1 construct: also called cMET-HIS tagged; not shown: His tag
Experiment: ELISA on coated c-MET-His tag protein (4 ug/ml), biotinylated human HGF, streptavidin-HRP

Sequence of c-MET-His tag protein (P08581 25-932 limits assumed): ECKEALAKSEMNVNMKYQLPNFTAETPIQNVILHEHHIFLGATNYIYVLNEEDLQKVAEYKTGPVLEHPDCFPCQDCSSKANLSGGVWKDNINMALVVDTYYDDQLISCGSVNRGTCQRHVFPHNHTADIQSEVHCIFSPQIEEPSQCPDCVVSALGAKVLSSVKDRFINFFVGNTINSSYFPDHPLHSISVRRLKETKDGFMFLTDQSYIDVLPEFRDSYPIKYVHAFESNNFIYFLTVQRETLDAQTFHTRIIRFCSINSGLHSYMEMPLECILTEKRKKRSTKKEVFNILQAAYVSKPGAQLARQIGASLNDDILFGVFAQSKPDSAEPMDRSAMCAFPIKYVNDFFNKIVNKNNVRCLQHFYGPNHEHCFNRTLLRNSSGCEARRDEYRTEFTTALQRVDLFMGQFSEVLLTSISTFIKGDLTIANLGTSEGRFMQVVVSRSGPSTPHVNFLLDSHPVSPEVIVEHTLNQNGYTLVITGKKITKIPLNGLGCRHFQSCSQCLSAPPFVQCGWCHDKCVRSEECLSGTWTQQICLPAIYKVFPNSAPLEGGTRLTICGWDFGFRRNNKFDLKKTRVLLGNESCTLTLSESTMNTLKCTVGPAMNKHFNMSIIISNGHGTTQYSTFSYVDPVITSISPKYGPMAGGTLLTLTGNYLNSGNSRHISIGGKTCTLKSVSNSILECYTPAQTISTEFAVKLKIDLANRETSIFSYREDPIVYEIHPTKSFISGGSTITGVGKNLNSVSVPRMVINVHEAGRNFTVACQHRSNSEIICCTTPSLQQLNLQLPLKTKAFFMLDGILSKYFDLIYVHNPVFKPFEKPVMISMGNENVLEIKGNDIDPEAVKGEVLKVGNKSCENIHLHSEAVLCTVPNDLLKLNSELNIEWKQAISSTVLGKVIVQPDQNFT

B1: biotinylated Hu-HGF protein (ligand)
chain: not shown
modifications: biotinylated
notes: also called human HGF; Hu-HGF-B
- binding result: binds
